Results published in the supplement of paper PMC12230231.
± gives the standard deviation of the averaged measurements. Restriction of a single-cycle SIVsab GFP reporter by TRIM5α v1-loop variants in CRFK cells. Human variants: read share among cells still uninfected after two challenges over input, higher = gained restriction. Rhesus variants: share among infected cells over input, higher = lost restriction. Reporter dose not given per row. No active / inactive call per row; the paper calls a change when both replicates lie above its controls (mean + 2 SD of stop or wild-type variants, or the top frameshift score). Residues outside the varied loop are taken from Swiss-Prot. The paper reads the human single-substitution scores as noise; they and the rhesus combinations repeat poorly (rank correlation 0.3 to 0.4), indel scores repeat only for the top variants, rhesus substitutions well (0.9).

Test system: SIVsab (simian immunodeficiency virus of sabaeus monkeys), single-cycle GFP reporter, in CRFK cells
Assay: enrichment among uninfected cells over input (fold); higher = stronger restriction
Settings: library: human / rhesus combinations
Procedure: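 Pools of CRFK cells expressing variants of the TRIM5α v1 loop were challenged with the single-cycle reporter, sorted by GFP and sequenced; mean of two replicates.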

Sequence	enrichment
MASGILVNVKEEVTCPICLELLTQPLSLDCGHSFCQACLTANHKKSMLDKGESSCPVCRISYQPENIRPNRHVANIVEKLREVKLSPEGQKVDHCARHGEKLLLFCQEDGKVICWLCERSQEHRGHHTFLTEEVAREYQVKLQAALEMLRQKQQEAEELEADIREEKASWKTQIQYDKTNVLADFEQLRDILDWEESNELQNLEKEEEDILKSLTNSETEMVQQTQSLRELISDLEHRLQGSVMELLQGVDGVIKRTENVTLKKPETFPKNQRRVFRAPDLKGMLEVFRELTDVRRYWVDVTVAPNNISCAVISEDKRQVSSPKPQIIYQARGTRFTFQTLTNFNYCTGILGSQSITSGKHYWEVDVSKKTAWILGVCAGFQPDAMCNIEKNENYQPKYGYWVIGLEEGVKCSAFQDSSFHTPSVPFIVPLSVIICPDRVGVFLDYEACTVSFFNITNHGFLIYKFSHCSFSQPVFPYLNPRKCGVPMTLCSPSS [human TRIM5α, 330-340 = QARGTRFTFQTLT]	0.452 ± 0.25
MASGILVNVKEEVTCPICLELLTQPLSLDCGHSFCQACLTANHKKSMLDKGESSCPVCRISYQPENIRPNRHVANIVEKLREVKLSPEGQKVDHCARHGEKLLLFCQEDGKVICWLCERSQEHRGHHTFLTEEVAREYQVKLQAALEMLRQKQQEAEELEADIREEKASWKTQIQYDKTNVLADFEQLRDILDWEESNELQNLEKEEEDILKSLTNSETEMVQQTQSLRELISDLEHRLQGSVMELLQGVDGVIKRTENVTLKKPETFPKNQRRVFRAPDLKGMLEVFRELTDVRRYWVDVTVAPNNISCAVISEDKRQVSSPKPQIIYGARGTRFTFPTLVNFNYCTGILGSQSITSGKHYWEVDVSKKTAWILGVCAGFQPDAMCNIEKNENYQPKYGYWVIGLEEGVKCSAFQDSSFHTPSVPFIVPLSVIICPDRVGVFLDYEACTVSFFNITNHGFLIYKFSHCSFSQPVFPYLNPRKCGVPMTLCSPSS [human TRIM5α, 330-340 = GARGTRFTFPTLV]	0.123 ± 0.077
MASGILVNVKEEVTCPICLELLTQPLSLDCGHSFCQACLTANHKKSMLDKGESSCPVCRISYQPENIRPNRHVANIVEKLREVKLSPEGQKVDHCARHGEKLLLFCQEDGKVICWLCERSQEHRGHHTFLTEEVAREYQVKLQAALEMLRQKQQEAEELEADIREEKASWKTQIQYDKTNVLADFEQLRDILDWEESNELQNLEKEEEDILKSLTNSETEMVQQTQSLRELISDLEHRLQGSVMELLQGVDGVIKRTENVTLKKPETFPKNQRRVFRAPDLKGMLEVFRELTDVRRYWVDVTVAPNNISCAVISEDKRQVSSPKPQIIYGAPGTRFTFPTFTNFNYCTGILGSQSITSGKHYWEVDVSKKTAWILGVCAGFQPDAMCNIEKNENYQPKYGYWVIGLEEGVKCSAFQDSSFHTPSVPFIVPLSVIICPDRVGVFLDYEACTVSFFNITNHGFLIYKFSHCSFSQPVFPYLNPRKCGVPMTLCSPSS [human TRIM5α, 330-340 = GAPGTRFTFPTFT]	0.124 ± 0.06
MASGILVNVKEEVTCPICLELLTQPLSLDCGHSFCQACLTANHKKSMLDKGESSCPVCRISYQPENIRPNRHVANIVEKLREVKLSPEGQKVDHCARHGEKLLLFCQEDGKVICWLCERSQEHRGHHTFLTEEVAREYQVKLQAALEMLRQKQQEAEELEADIREEKASWKTQIQYDKTNVLADFEQLRDILDWEESNELQNLEKEEEDILKSLTNSETEMVQQTQSLRELISDLEHRLQGSVMELLQGVDGVIKRTENVTLKKPETFPKNQRRVFRAPDLKGMLEVFRELTDVRRYWVDVTVAPNNISCAVISEDKRQVSSPKPQIIYGARGTLYTFQSFVNFNYCTGILGSQSITSGKHYWEVDVSKKTAWILGVCAGFQPDAMCNIEKNENYQPKYGYWVIGLEEGVKCSAFQDSSFHTPSVPFIVPLSVIICPDRVGVFLDYEACTVSFFNITNHGFLIYKFSHCSFSQPVFPYLNPRKCGVPMTLCSPSS [human TRIM5α, 330-340 = GARGTLYTFQSFV]	0.154 ± 0.014

Same assay, conditions: library: insertions and deletions

Sequence	enrichment
MASGILVNVKEEVTCPICLELLTQPLSLDCGHSFCQACLTANHKKSMLDKGESSCPVCRISYQPENIRPNRHVANIVEKLREVKLSPEGQKVDHCARHGEKLLLFCQEDGKVICWLCERSQEHRGHHTFLTEEVAREYQVKLQAALEMLRQKQQEAEELEADIREEKASWKTQIQYDKTNVLADFEQLRDILDWEESNELQNLEKEEEDILKSLTNSETEMVQQTQSLRELISDLEHRLQGSVMELLQGVDGVIKRTENVTLKKPETFPKNQRRVFRAPDLKGMLEVFRELTDVRRYWVDVTVAPNNISCAVISEDKRQVSSPKPQIIYGARGTRYQTILGSQSITSGKHYWEVDVSKKTAWILGVCAGFQPDAMCNIEKNENYQPKYGYWVIGLEEGVKCSAFQDSSFHTPSVPFIVPLSVIICPDRVGVFLDYEACTVSFFNITNHGFLIYKFSHCSFSQPVFPYLNPRKCGVPMTLCSPSS [human TRIM5α, 9-codon deletion at 339]	3.23 ± 2.9
MASGILVNVKEEVTCPICLELLTQPLSLDCGHSFCQACLTANHKKSMLDKGESSCPVCRISYQPENIRPNRHVANIVEKLREVKLSPEGQKVDHCARHGEKLLLFCQEDGKVICWLCERSQEHRGHHTFLTEEVAREYQVKLQAALEMLRQKQQEAEELEADIREEKASWKTQIQYDKTNVLADFEQLRDILDWEESNELQNLEKEEEDILKSLTNSETEMVQQTQSLRELISDLEHRLQGSVMELLQGVDGVIKRTENVTLKKPETFPKNQRRVFRAPDLKGMLEVFRELTDVRRYWVDVTVAPNNISCAVISEDKRQVSSPKPQIIYGARGTRYIYGARGTRYQTFVNFNYCTGILGSQSITSGKHYWEVDVSKKTAWILGVCAGFQPDAMCNIEKNENYQPKYGYWVIGLEEGVKCSAFQDSSFHTPSVPFIVPLSVIICPDRVGVFLDYEACTVSFFNITNHGFLIYKFSHCSFSQPVFPYLNPRKCGVPMTLCSPSS [human TRIM5α, 9-codon duplication at 328]	0.51 ± 0.17
MASGILVNVKEEVTCPICLELLTQPLSLDCGHSFCQACLTANHKKSMLDKGESSCPVCRISYQPENIRPNRHVANIVEKLREVKLSPEGQKVDHCARHGEKLLLFCQEDGKVICWLCERSQEHRGHHTFLTEEVAREYQVKLQAALEMLRQKQQEAEELEADIREEKASWKTQIQYDKTNVLADFEQLRDILDWEESNELQNLEKEEEDILKSLTNSETEMVQQTQSLRELISDLEHRLQGSVMELLQGVDGVIKRTENVTLKKPETFPKNQRRVFRAPDLKGMLEVFRELTDVRRYWVDVTVAPNNISCAVISEDKRQVSSPKPQIIYGARTRYQTFVNFNYCTGILGSQSITSGKHYWEVDVSKKTAWILGVCAGFQPDAMCNIEKNENYQPKYGYWVIGLEEGVKCSAFQDSSFHTPSVPFIVPLSVIICPDRVGVFLDYEACTVSFFNITNHGFLIYKFSHCSFSQPVFPYLNPRKCGVPMTLCSPSS [human TRIM5α, 1-codon deletion at 333]	0.539 ± 0.31
MASGILVNVKEEVTCPICLELLTQPLSLDCGHSFCQACLTANHKKSMLDKGESSCPVCRISYQPENIRPNRHVANIVEKLREVKLSPEGQKVDHCARHGEKLLLFCQEDGKVICWLCERSQEHRGHHTFLTEEVAREYQVKLQAALEMLRQKQQEAEELEADIREEKASWKTQIQYDKTNVLADFEQLRDILDWEESNELQNLEKEEEDILKSLTNSETEMVQQTQSLRELISDLEHRLQGSVMELLQGVDGVIKRTENVTLKKPETFPKNQRRVFRAPDLKGMLEVFRELTDVRRYWVDVTVAPNNISCAVISEDKRQVSSPKPQIIYGARGTRYGTRYQTFVNFNYCTGILGSQSITSGKHYWEVDVSKKTAWILGVCAGFQPDAMCNIEKNENYQPKYGYWVIGLEEGVKCSAFQDSSFHTPSVPFIVPLSVIICPDRVGVFLDYEACTVSFFNITNHGFLIYKFSHCSFSQPVFPYLNPRKCGVPMTLCSPSS [human TRIM5α, 4-codon duplication at 333]	0.34 ± 0.052
